Reference: the BET-seq Pho4 binding data (Le et al. 2018)
Some of the results follow. The energies were worked out here from pooled read counts, against the library average; single values are noisy.

What follows are sequences tested against T1, Pho4 (S. cerevisiae) (UniProt P07270) (assay: relative binding free energy (BET-seq); higher = weaker binding). Conditions: reference: library average.
T1 sequence: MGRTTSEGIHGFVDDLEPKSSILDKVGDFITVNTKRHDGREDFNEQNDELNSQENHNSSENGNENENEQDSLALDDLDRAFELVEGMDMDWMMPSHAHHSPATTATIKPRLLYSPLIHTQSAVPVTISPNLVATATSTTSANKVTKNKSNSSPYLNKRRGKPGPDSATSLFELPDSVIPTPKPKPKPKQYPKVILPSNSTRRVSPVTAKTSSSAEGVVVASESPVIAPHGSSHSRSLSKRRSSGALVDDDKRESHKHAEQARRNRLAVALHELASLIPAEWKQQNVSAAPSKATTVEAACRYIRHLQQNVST

Which “relative binding free energy” value does the source give for TCGGGCACGTGAGTGC here?
The value was 0.05 kcal/mol.

How did the “relative binding free energy” value turn out when TATTGCACGTGTTTAG was run?
The value was 0.01 kcal/mol.

How did the “relative binding free energy” value turn out when CTTTTCACGTGCTTGT was run?
The value was 0.13 kcal/mol.

How did the “relative binding free energy” value turn out when TGGAACACGTGTGTGT was run?
Its value is 0.02 kcal/mol.

Which “relative binding free energy” value does the source give for TAGGGCACGTGACAGT here?
The value was -0.13 kcal/mol.

With TGGTACACGTGAGTAA as the sequence, how does the “relative binding free energy” value read?
The value was 0.41 kcal/mol.

GTCGACACGTGGAGGT was tested. Which “relative binding free energy” value did it give?
The value was 0.07 kcal/mol.

For AGCATCACGTGGGGTG, which “relative binding free energy” value is on record?
The value was 0.03 kcal/mol.

For AGTGGCACGTGATGTC, which “relative binding free energy” value is on record?
The value was -0.09 kcal/mol.

Which “relative binding free energy” value does the source give for AGGGACACGTGTTGCG here?
The value was 0.02 kcal/mol.

ATGGGCACGTGGGTGA was tested. Which “relative binding free energy” value did it give?
The value was -0.19 kcal/mol.

With ATTAACACGTGAGTTA as the sequence, how does the “relative binding free energy” value read?
Its value is 0.26 kcal/mol.

Which “relative binding free energy” value does the source give for GTTAACACGTGAGTAA here?
The value was 0.23 kcal/mol.

How did the “relative binding free energy” value turn out when GGATGCACGTGCGGCG was run?
Its value is -0.12 kcal/mol.

With TGGATCACGTGATGTG as the sequence, how does the “relative binding free energy” value read?
The value was 0.33 kcal/mol.

With TCCGGCACGTGGGGGG as the sequence, how does the “relative binding free energy” value read?
The value was -0.16 kcal/mol.

Which “relative binding free energy” value does the source give for CTTTTCACGTGGAGGG here?
Its value is 0.16 kcal/mol.

Which “relative binding free energy” value does the source give for AAGAGCACGTGTTGAG here?
Its value is -0.04 kcal/mol.

AGGATCACGTGAGGGG was tested. Which “relative binding free energy” value did it give?
The value was 0.38 kcal/mol.

For TGGGGCACGTGAAGTT, which “relative binding free energy” value is on record?
Its value is 0.3 kcal/mol.

With TCTGCCACGTGGGAGG as the sequence, how does the “relative binding free energy” value read?
The value was -0.06 kcal/mol.

For GGTGTCACGTGGTCAT, which “relative binding free energy” value is on record?
The value was 0.01 kcal/mol.

TACATCACGTGTAGGG was tested. Which “relative binding free energy” value did it give?
The value was 0.25 kcal/mol.

For GTTTCCACGTGTGAGG, which “relative binding free energy” value is on record?
The value was 0.09 kcal/mol.

How did the “relative binding free energy” value turn out when TCATGCACGTGGGTCT was run?
Its value is -0.14 kcal/mol.

Which “relative binding free energy” value does the source give for TTGGGCACGTGGTACT here?
Its value is -0.21 kcal/mol.

AGCGGCACGTGATTGT was tested. Which “relative binding free energy” value did it give?
The value was 0.12 kcal/mol.

How did the “relative binding free energy” value turn out when ATCGTCACGTGTTCTT was run?
Its value is 0.19 kcal/mol.

TGTACCACGTGGTATG was tested. Which “relative binding free energy” value did it give?
Its value is -0.12 kcal/mol.

Which “relative binding free energy” value does the source give for GTGTGCACGTGGGTCG here?
Its value is -0.07 kcal/mol.

How did the “relative binding free energy” value turn out when CAGAGCACGTGCGGGG was run?
Its value is -0.28 kcal/mol.

Which “relative binding free energy” value does the source give for TTATGCACGTGATTTA here?
Its value is 0.13 kcal/mol.

With ATTTACACGTGATTGC as the sequence, how does the “relative binding free energy” value read?
Its value is 0.17 kcal/mol.

Which “relative binding free energy” value does the source give for TCTTGCACGTGTGGTC here?
The value was 0.1 kcal/mol.

With GGTGTCACGTGAGGGA as the sequence, how does the “relative binding free energy” value read?
Its value is 0.27 kcal/mol.

TTAAACACGTGTAGCG was tested. Which “relative binding free energy” value did it give?
The value was 0.19 kcal/mol.

AGATTCACGTGTTTTT was tested. Which “relative binding free energy” value did it give?
Its value is 0.21 kcal/mol.

Which “relative binding free energy” value does the source give for GATTTCACGTGATGTG here?
Its value is 0.34 kcal/mol.

With CTGGTCACGTGTATGA as the sequence, how does the “relative binding free energy” value read?
Its value is 0.02 kcal/mol.

TTATCCACGTGGGGTC was tested. Which “relative binding free energy” value did it give?
Its value is -0.17 kcal/mol.

For ATTTTCACGTGTAGAG, which “relative binding free energy” value is on record?
Its value is 0.32 kcal/mol.

For TTGAGCACGTGGCCTG, which “relative binding free energy” value is on record?
The value was -0.22 kcal/mol.

With TGTTTCACGTGAGAAT as the sequence, how does the “relative binding free energy” value read?
Its value is 0.55 kcal/mol.

With TTTGACACGTGGGCTA as the sequence, how does the “relative binding free energy” value read?
Its value is -0.26 kcal/mol.

For TAAAGCACGTGTGGTT, which “relative binding free energy” value is on record?
The value was -0.01 kcal/mol.

Which “relative binding free energy” value does the source give for CGCTGCACGTGTTTGG here?
Its value is 0.04 kcal/mol.

Which “relative binding free energy” value does the source give for GAATGCACGTGTTTAA here?
The value was 0.08 kcal/mol.

For TTTTACACGTGCGGAT, which “relative binding free energy” value is on record?
Its value is -0.02 kcal/mol.

Which “relative binding free energy” value does the source give for GTATTCACGTGGTTGT here?
Its value is 0.19 kcal/mol.

For TTAGTCACGTGCTGGC, which “relative binding free energy” value is on record?
The value was -0.04 kcal/mol.

For TTTTGCACGTGGGAAT, which “relative binding free energy” value is on record?
Its value is -0.02 kcal/mol.

With ACTGGCACGTGTGGGC as the sequence, how does the “relative binding free energy” value read?
Its value is -0.05 kcal/mol.

How did the “relative binding free energy” value turn out when TTTTGCACGTGGACGT was run?
The value was 0.02 kcal/mol.

How did the “relative binding free energy” value turn out when GATAGCACGTGGGTAA was run?
Its value is 0.04 kcal/mol.

TATTTCACGTGAGTAG was tested. Which “relative binding free energy” value did it give?
Its value is 0.32 kcal/mol.

GAGGGCACGTGGCGTT was tested. Which “relative binding free energy” value did it give?
Its value is -0.09 kcal/mol.

GGGGCCACGTGGGTTA was tested. Which “relative binding free energy” value did it give?
The value was -0.18 kcal/mol.

Which “relative binding free energy” value does the source give for ACTGGCACGTGGGTAG here?
The value was -0.35 kcal/mol.

For TAAGGCACGTGTGGGA, which “relative binding free energy” value is on record?
Its value is -0.05 kcal/mol.

With TGGAGCACGTGGGCTA as the sequence, how does the “relative binding free energy” value read?
Its value is -0.12 kcal/mol.

With TGGTCCACGTGGTTAG as the sequence, how does the “relative binding free energy” value read?
Its value is -0.02 kcal/mol.

How did the “relative binding free energy” value turn out when TTTATCACGTGCTATT was run?
Its value is -0.03 kcal/mol.

For ACTGGCACGTGGGGTA, which “relative binding free energy” value is on record?
The value was -0.22 kcal/mol.

With TTGCTCACGTGGGGTT as the sequence, how does the “relative binding free energy” value read?
Its value is 0.04 kcal/mol.

How did the “relative binding free energy” value turn out when AAATGCACGTGGCGTG was run?
Its value is 0.02 kcal/mol.

For AAAGGCACGTGGTCGT, which “relative binding free energy” value is on record?
Its value is -0.23 kcal/mol.

How did the “relative binding free energy” value turn out when TTGTGCACGTGATCGT was run?
Its value is -0.03 kcal/mol.

Which “relative binding free energy” value does the source give for TGGAGCACGTGCTTGG here?
The value was -0.2 kcal/mol.

How did the “relative binding free energy” value turn out when GGGCGCACGTGTAGCT was run?
Its value is -0.02 kcal/mol.

CTGGTCACGTGTAGAG was tested. Which “relative binding free energy” value did it give?
The value was 0.2 kcal/mol.

Which “relative binding free energy” value does the source give for TTTAACACGTGTGGCC here?
The value was 0.16 kcal/mol.

For ATTGTCACGTGGGGGA, which “relative binding free energy” value is on record?
The value was -0.02 kcal/mol.

GGGAACACGTGTTCTG was tested. Which “relative binding free energy” value did it give?
Its value is 0.11 kcal/mol.

CGAGTCACGTGAAGGG was tested. Which “relative binding free energy” value did it give?
The value was 0.39 kcal/mol.

How did the “relative binding free energy” value turn out when TTCGTCACGTGTTTCG was run?
The value was 0.13 kcal/mol.

Which “relative binding free energy” value does the source give for ATGGGCACGTGTTCGT here?
Its value is -0.12 kcal/mol.

How did the “relative binding free energy” value turn out when GTTCTCACGTGAGGTG was run?
The value was 0.39 kcal/mol.

GTATTCACGTGTATTC was tested. Which “relative binding free energy” value did it give?
The value was 0.4 kcal/mol.

Which “relative binding free energy” value does the source give for AGTGTCACGTGTATAT here?
Its value is 0.08 kcal/mol.

GTAGGCACGTGCGTGC was tested. Which “relative binding free energy” value did it give?
The value was -0.19 kcal/mol.

With CGTGGCACGTGAGTTC as the sequence, how does the “relative binding free energy” value read?
Its value is 0.12 kcal/mol.

How did the “relative binding free energy” value turn out when TTGATCACGTGGAGCT was run?
Its value is 0.06 kcal/mol.

GCATTCACGTGGTTTA was tested. Which “relative binding free energy” value did it give?
Its value is 0.27 kcal/mol.

With TTGGACACGTGGGGGC as the sequence, how does the “relative binding free energy” value read?
The value was -0.06 kcal/mol.

GTGGACACGTGCGGCG was tested. Which “relative binding free energy” value did it give?
The value was -0.12 kcal/mol.

With TAAGTCACGTGTGGGT as the sequence, how does the “relative binding free energy” value read?
The value was 0.12 kcal/mol.

For TATAGCACGTGGTGTG, which “relative binding free energy” value is on record?
The value was -0.17 kcal/mol.

Which “relative binding free energy” value does the source give for TGTAACACGTGAAAGG here?
The value was 0.31 kcal/mol.

With CTGGTCACGTGTAAGG as the sequence, how does the “relative binding free energy” value read?
Its value is 0.16 kcal/mol.

TTGAACACGTGGGTCA was tested. Which “relative binding free energy” value did it give?
The value was -0.12 kcal/mol.

How did the “relative binding free energy” value turn out when GGTCACACGTGTGTTA was run?
The value was 0.03 kcal/mol.

For TCAGGCACGTGATGGG, which “relative binding free energy” value is on record?
Its value is 0.08 kcal/mol.

For GGATGCACGTGTCGTA, which “relative binding free energy” value is on record?
Its value is 0.06 kcal/mol.

How did the “relative binding free energy” value turn out when GTACGCACGTGAGGGT was run?
Its value is 0.18 kcal/mol.

With TAGTGCACGTGTAATT as the sequence, how does the “relative binding free energy” value read?
Its value is 0.15 kcal/mol.

How did the “relative binding free energy” value turn out when GAGCTCACGTGTCGGG was run?
The value was 0.5 kcal/mol.

How did the “relative binding free energy” value turn out when ACCGGCACGTGGTGGG was run?
The value was -0.21 kcal/mol.

GGTAGCACGTGGGCTG was tested. Which “relative binding free energy” value did it give?
Its value is -0.27 kcal/mol.

TGTCTCACGTGGTGGC was tested. Which “relative binding free energy” value did it give?
Its value is 0.27 kcal/mol.

How did the “relative binding free energy” value turn out when GTAGTCACGTGGTGCA was run?
The value was -0.01 kcal/mol.

Which “relative binding free energy” value does the source give for CTATGCACGTGGGGTC here?
Its value is -0.2 kcal/mol.

How did the “relative binding free energy” value turn out when AAAAGCACGTGAGGAG was run?
The value was 0.14 kcal/mol.

With TGTGCCACGTGTATTT as the sequence, how does the “relative binding free energy” value read?
The value was -0.2 kcal/mol.

How did the “relative binding free energy” value turn out when AGAAACACGTGGGCGG was run?
Its value is -0.18 kcal/mol.

TATGGCACGTGGTTCA was tested. Which “relative binding free energy” value did it give?
Its value is -0.05 kcal/mol.

How did the “relative binding free energy” value turn out when TCTTTCACGTGTGGAT was run?
Its value is 0.33 kcal/mol.

Which “relative binding free energy” value does the source give for TATGGCACGTGGGAGT here?
The value was -0.1 kcal/mol.

With AGTGACACGTGTAATT as the sequence, how does the “relative binding free energy” value read?
Its value is 0.18 kcal/mol.

How did the “relative binding free energy” value turn out when ACATTCACGTGAGGTG was run?
The value was 0.16 kcal/mol.

How did the “relative binding free energy” value turn out when CGGCTCACGTGGGGGT was run?
The value was 0 kcal/mol.

How did the “relative binding free energy” value turn out when AGTGCCACGTGATGGG was run?
Its value is 0.04 kcal/mol.

GTTTGCACGTGAGGTC was tested. Which “relative binding free energy” value did it give?
Its value is 0.29 kcal/mol.

For TTTGGCACGTGCTTAG, which “relative binding free energy” value is on record?
The value was -0.18 kcal/mol.

With TCTTGCACGTGGAGGC as the sequence, how does the “relative binding free energy” value read?
Its value is -0.07 kcal/mol.

With TGGTACACGTGGGAGC as the sequence, how does the “relative binding free energy” value read?
The value was -0.13 kcal/mol.
